Assay results as given in PubChem BioAssay AID1508642 (National Center for Advancing Translational Sciences (NCATS), 2021).
Out of some 43,000 compounds screened, about 200 (0.47%) were called active. Not shown: some 12% with an inconclusive outcome. Calls follow the shape of the dose curve; as a rule, active = well fitted cell-killing curve with a large enough effect; inconclusive = small, poorly fitted or top-dose-only effect, or effect the other way; inactive = flat fitted curve, though single readings scatter. The list shows a part of the results.

Experiment: Cell viability qHTS assay in S16 Pmp22-F2sN cells; also: nearly all actives have a fitted effect of over 65% in size
Conditions: S16 Pmp22-F2sN Schwann cells (luciferase reporters placed in the Pmp22 gene) viability, CellTiter-Glo, 24 h; series mostly up to 57.5 µM; activity change, negative = cytotoxicity: at the top concentration
Method in brief: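 Luminescence from CellTiter-Glo, read by CCD camera after a 15 min room-temperature incubation, served as the viability signal. Reporter Schwann cells (S16 Pmp22-F2sN) had been treated with pin-transferred compounds for 24 h at 37C.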
% is scaled to controls: 0 for no effect and ±100 for the full control effect.

Compound	activity change, negative = cytotoxicity
Cc1ccc(C)c(NC(=O)C2CCCN2S(=O)(=O)c2ccc3c(c2)n(C)c(=O)c(=O)n3C)c1 (centres undefined)	inactive: 9.13%
COc1ccc(C2C(C(=O)Nc3cccnc3)=C(C)Nc3nc(SCc4ccccc4)nn32)cc1 (centres undefined)	inactive: 2.47%
CCOCCCNC(=O)c1ccc(Cn2c(=O)c3cccn3c3cccnc32)cc1	inactive: 21.3%
Cc1c(C(=O)N2CCCC2)oc2c1-c1nn(CC(=O)NC(C)c3ccccc3)cc1CC2 (centres undefined)	inactive: -6.29%
CCC(C(=O)Nc1cc(OC)ccc1OC)n1c(C)c2cnn(-c3ccccc3)c(=O)c2c1C (centres undefined)	inactive: -3.55%
COc1ccc(-n2ccn(CC(=O)NCc3ccc(C)cc3)c(=O)c2=O)cc1OC	inactive: 0.464%
COc1ccc(CC(=O)NCC(c2cccs2)S(=O)(=O)c2ccc(Cl)cc2)cc1 (centres undefined)	inactive: -3.37%
COc1ccccc1C(=O)c1cn(CC(=O)Nc2ccccc2F)c2nc(C)ccc2c1=O	inactive: -1.18%
Cc1ccc(C)c(N2CCN(C(=O)c3cc(S(=O)(=O)N4CCC(C)CC4)cn3C)CC2)c1	inactive: -4.12%
Cc1ccc2oc(C(=O)Nc3cccc(-c4nc5ccccc5s4)c3)c(C)c2c1	inactive: 26.6%
Cc1ccc(Nc2ncc(C(=O)N3CCN(c4cccc(Cl)c4)CC3)c3ccccc23)cc1Cl	inactive: 14.4%
COc1ccccc1Cn1cc(C(=O)c2ccc(F)cc2)c(=O)c2cc3c(cc21)OCO3	inactive: -0.969%
Cc1cccc(C)c1OCC(=O)Nc1c(C(=O)c2ccc(Br)cc2)oc2ccccc12	inactive: -5.56%
O=C(CN1C(=O)COc2ccc(S(=O)(=O)N3CCCCCC3)cc21)N1CCN(c2cccc(C(F)(F)F)c2)CC1	inactive: 1.37%
COc1ccc2c(CNCCc3cccs3)c(C(=O)O)n(Cc3ccccc3C)c2c1	inactive: 4.91%
Cc1cccc(N2CCN(C(=O)C3CCN(S(=O)(=O)c4c(C)noc4C)CC3)CC2)c1C	inactive: 1.91%
COc1ccc2oc(=O)c(-c3cn4c(n3)sc3cc(F)ccc34)cc2c1	inactive: 3.11%
COc1ccc(-c2noc(N3CCC(C(=O)N(C)c4cc(Cl)ccc4OC)CC3)n2)cc1	inactive: -20.2%
COc1ccc(CCNC(=O)CCc2cn(Cc3ccc(C)cc3)c3ccccc23)c(OC)c1OC	inactive: 1.07%
CCOc1cc2[nH]c(=O)n(CCCCC(=O)N3CCN(c4ccccc4)CC3)c(=O)c2cc1OCC	inactive: 4.69%

Compound	activity change, negative = cytotoxicity
CCCCOc1ccc(S(=O)(=O)NCc2csc(-c3ccc(OC)cc3)n2)cc1	inactive: -1.32%
CCCn1c2ccccc2c2cnn(CC(=O)N(Cc3ccccc3)C(C)C)c(=O)c21	inactive: -7.36%
COc1ccc(CCNC(=O)c2ccc(Cn3c(=O)c4ccccc4n(Cc4ccc(C)cc4)c3=O)cc2)cc1OC	inactive: 1.81%
Cc1ccc2nc(CN3CCN(C(=O)Nc4ccc(C)c(F)c4)CC3)oc2c1	inactive: -20.8%
COCCCn1c(SCC(=O)Nc2ccccc2OC)nc2c(sc3ccccc32)c1=O	inactive: -15.8%
CCOc1ccc(CCNC(=O)c2ccc(-c3nc(COc4ccc(C)cc4)c(C)o3)cc2)cc1	inactive: -1.07%
COc1ccc(NC(=O)CSc2nc(-c3ccc(F)cc3)c3cccc(C)c3n2)cc1	inactive: -1.53%
O=C(Nc1ccc(F)cc1)[C@@H](c1ccccc1)N1Cc2ccccc2C1=O	inactive: -1.98%
CCCCN(C)CCCNC(=O)c1cc(-c2cccnc2)nc2ccccc12	inactive: -11.6%
COc1ccc(-c2oc3ncn4nc(COc5ccccc5C)nc4c3c2-c2ccc(OC)cc2)cc1	inactive: 5.56%
COC(=O)c1ccc(OC)c(Cn2c(=O)n(-c3cccc(Cl)c3)c(=O)c3c4c(sc32)CN(C(C)=O)CC4)c1	inactive: 0.323%
CCOC(=O)C1CCCN(C(=O)Cn2ncn3c(cc4sc(CC)cc43)c2=O)C1 (centres undefined)	inactive: 17.7%
COc1ccccc1CCNC(=O)CCc1c(C)c2cc3c(C)c(C)oc3cc2oc1=O	inactive: -4.44%
Cc1ccc(Cl)cc1NC(=O)CN1C(=O)COc2ccc(S(=O)(=O)N3CCCCCC3)cc21	inactive: 7.71%
COc1ccc(NC(=O)Cn2c(=O)n(-c3ccc(OC)cc3)c(=O)c3ccc(C(=O)NCc4ccc(C)cc4)cc32)cc1	inactive: 7.65%
COc1cc(C(=O)NCCc2csc3nc(-c4ccccc4C)nn23)cc(OC)c1OC	inactive: 4.19%
Cc1cc(OCC(=O)N(Cc2ccc(N(C)C)cc2)C2CCS(=O)(=O)C2)cc(C)c1Cl (centres undefined)	inactive: -20.6%
CC(C)c1ccc(NC(=O)CC2Oc3ccccc3NC2=O)cc1 (centres undefined)	inactive: -19%
O=C(c1cccs1)c1cn(CCOc2ccccc2Cl)c2ccccc12	inactive: 9.56%
CCN(C(=O)C(Cc1ccccc1)NS(=O)(=O)c1cccc2nsnc12)c1ccccc1 (centres undefined)	inactive: -21.9%

Compound	activity change, negative = cytotoxicity
Cc1ccc(NC(=O)C(=O)NCC(c2ccc3c(c2)OCO3)N2CCN(c3ccccc3)CC2)cc1 (centres undefined)	inactive: 14.1%
Cc1ccc(NC(=O)c2nnn(CC(=O)Nc3ccc(C)c(Cl)c3)c2N)c(C)c1	inactive: 1.69%
Cc1ccc(C(=O)n2nc(C)c(S(=O)(=O)N3CCOCC3)c2C)cc1C	inactive: 9.59%
COc1ccccc1N1CCN(C(=O)CCS(=O)(=O)c2cc(Br)cc3c2N(C(C)=O)CC3)CC1	inactive: 16.3%
COc1ccc(Cn2c(CO)cnc2SCc2cccc(C)c2)cc1	inactive: -6.4%
Cc1nc(N2CCCC2)ncc1C(=O)N1CCN(c2ccccc2F)CC1	inactive: -3.75%
O=C(COc1ccc(Cl)cc1)NCC(c1ccco1)S(=O)(=O)c1ccc(Cl)cc1 (centres undefined)	inactive: -23.3%
COc1ccc(CNC(=O)c2cc3c(=O)n(C)c4ccccc4c3n2C)c(OC)c1	inactive: 2.04%
Cc1cc(C)c2oc(-c3ccc(C)c(NC(=O)/C=C/c4ccco4)c3)nc2c1	inactive: 0.426%
COCCNC(=O)CCCn1c(SCc2ccccc2Cl)nc2c(sc3ccccc32)c1=O	inactive: 24.4%
COc1ccccc1C1CC(=O)N(c2cccc(C(F)(F)F)c2)C2=C1C(=O)OC2 (centres undefined)	inactive: -21.7%
COC(=O)c1c(-c2ccccc2)c(-c2ccccc2)nn(C)c1=O	inactive: 15.9%
COC(=O)c1ccc([C@H]2Nc3ccc(S(=O)(=O)Nc4cccc(C)c4)cc3[C@H]3C=CC[C@H]32)cc1	inactive: 0.44%
COc1ccccc1N1CCN(C(=O)c2cnc(N3CCOCC3)c3ccccc23)CC1	inactive: -15.4%
CCN1CCSc2ccc(C(=O)NCc3ccccc3Br)cc21	inactive: -2.09%
O=c1[nH]c(SCc2cccc(Cl)c2)nc2c1CCC2	inactive: 6.24%
Cc1cc(CN2CCN(c3ccc(F)cc3)CC2)cs1	inactive: 7.57%
Cc1cccc(N(CC(N)=O)C2SC(=O)N(Cc3cccc(C(=O)O)c3)C2=O)c1 (centres undefined)	inactive: 6.99%
CCC(=O)Nc1nnc2n1CCS2	inactive: 2.62%
